According to the supplement of paper PMC8728848:
The other results are listed elsewhere or left out.

Key:
Assay in all cases: glycan array binding signal (z-score within array); higher = stronger binding
Details in all cases: glycan notation: IUPAC condensed, linker removed
[1] = target: Gal6S(b1-4)Glc
In short: (§1)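 The Consortium for Functional Glycomics database supplied 3228 glycan arrays, of which those lacking an available protein sequence were dropped. The binding signal, a within-array Z-score, was averaged across arrays of the same protein sequence and across linkers. Negative scores can be read as non-binding.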

[2] = target: Gal6S(b1-4)Glc6S
In short: as §1

[3] = target: Gal6S(b1-4)GlcNAc
In short: as §1

[4] = target: Gal6S(b1-4)GlcNAc6S
In short: as §1

[5] = target: GalNAc(a1-3)Gal
In short: as §1

[6] = target: GalNAc(a1-3)GalNAc
In short: as §1

[7] = target: GalNAc(a1-3)GalNAc(b1-3)Gal(a1-4)Gal(b1-4)Glc
In short: as §1

[8] = target: GalNAc(a1-3)GalNAc(b1-3)Gal(a1-4)Gal(b1-4)GlcNAc
In short: as §1

[9] = target: GalNAc(b1-3)Gal
In short: as §1

[10] = target: GalNAc(b1-3)Gal(a1-4)Gal(b1-4)GlcNAc
In short: as §1

[11] = target: GalNAc(b1-3)Gal(a1-4)Gal(b1-4)GlcNAc(b1-3)Gal(b1-4)Glc
In short: as §1

[12] = target: GalNAc(b1-3)Gal(a1-6)Gal(b1-4)Glc
In short: as §1

[13] = target: GalNAc(b1-3)GalNAc
In short: as §1

[14] = target: GalNAc(b1-3)GlcNAc
In short: as §1

[15] = target: GalNAc(b1-4)Gal(b1-4)Glc
In short: as §1

[16] = target: GalNAc(b1-4)GlcNAc
In short: as §1

[17] = target: GalNAc(b1-4)GlcNAc(b1-2)Man
In short: as §1

[18] = target: GalNAc(b1-4)GlcNAc(b1-2)Man(a1-3)[GalNAc(b1-4)GlcNAc(b1-2)Man(a1-6)]Man(b1-4)GlcNAc(b1-4)GlcNAc
In short: as §1

[19] = target: GalNAc(b1-4)GlcNAc(b1-3)GalNAc(b1-4)GlcNAc
In short: as §1

[20] = target: GalNAc(b1-4)GlcNAc6S
In short: as §1

[21] = target: GalNAc(b1-6)GalNAc
In short: as §1

[22] = target: GalNAc3S(b1-4)GlcNAc
In short: as §1

[23] = target: GalNAc3S(b1-4)GlcNAc3S
In short: as §1

[24] = target: GalNAc3S(b1-4)[Fuc(a1-3)]GlcNAc
In short: as §1

[25] = target: GalNAc4S6S(b1-4)GlcNAc
In short: as §1

[26] = target: GalNAc6S(b1-4)GlcNAc
In short: as §1

[27] = target: Glc(a1-4)Glc
In short: as §1

[28] = target: Glc(a1-4)Glc(a1-4)Glc(a1-4)Glc
In short: as §1

[29] = target: Glc(a1-6)Glc(a1-6)Glc
In short: as §1

[30] = target: Glc(a1-6)Glc(a1-6)Glc(a1-6)Glc
In short: as §1

[31] = target: Glc(b1-4)Glc
In short: as §1

[32] = target: Glc(b1-6)Glc
In short: as §1

[33] = target: GlcA(b1-3)Gal
In short: as §1

[34] = target: GlcA(b1-3)GlcNAc
In short: as §1

[35] = target: GlcA(b1-6)Gal
In short: as §1

[36] = target: GlcA3S(b1-3)Gal(b1-4)GlcNAc(b1-2)Man
In short: as §1

[37] = target: GlcA3S(b1-3)Gal(b1-4)GlcNAc(b1-3)Gal(b1-4)Glc
In short: as §1

[38] = target: GlcNAc(a1-3)Gal(b1-4)GlcNAc
In short: as §1

[39] = target: GlcNAc(a1-4)Gal(b1-3)GlcNAc
In short: as §1

[40] = target: GlcNAc(a1-4)Gal(b1-4)GalNAc
In short: as §1

[41] = target: GlcNAc(a1-4)Gal(b1-4)GlcNAc
In short: as §1

[42] = target: GlcNAc(a1-4)Gal(b1-4)GlcNAc(b1-3)Gal(b1-4)Glc
In short: as §1

[43] = target: GlcNAc(a1-4)Gal(b1-4)GlcNAc(b1-3)Gal(b1-4)GlcNAc
In short: as §1

[44] = target: GlcNAc(a1-4)Gal(b1-4)GlcNAc(b1-3)Gal(b1-4)GlcNAc(b1-3)Gal(b1-4)GlcNAc
In short: as §1

[45] = target: GlcNAc(a1-4)Gal(b1-4)GlcNAc(b1-3)Gal(b1-4)[Fuc(a1-3)]GlcNAc(b1-3)Gal(b1-4)[Fuc(a1-3)]GlcNAc
In short: as §1

B1: MUB40 (Lactobacillus reuteri) (peptide)
chain: CTAEGIKKFEGDGYELFKDNFPAGEKFDNDDTNDQFYTVIF
glycan array binding signal (z-score) [1]: 2
glycan array binding signal (z-score) [2]: -0.817
glycan array binding signal (z-score) [3]: -0.617
glycan array binding signal (z-score) [4]: -0.04
glycan array binding signal (z-score) [5]: -0.411
glycan array binding signal (z-score) [6]: -0.598
glycan array binding signal (z-score) [7]: -0.35
glycan array binding signal (z-score) [8]: -0.31
glycan array binding signal (z-score) [9]: -0.431
glycan array binding signal (z-score) [10]: -0.189
glycan array binding signal (z-score) [11]: -0.426
glycan array binding signal (z-score) [12]: 0.235
glycan array binding signal (z-score) [13]: -0.452
glycan array binding signal (z-score) [14]: -0.031
glycan array binding signal (z-score) [15]: -0.468
glycan array binding signal (z-score) [16]: 0.026
glycan array binding signal (z-score) [17]: -0.385
glycan array binding signal (z-score) [18]: 0.311
glycan array binding signal (z-score) [19]: 1.24
glycan array binding signal (z-score) [20]: -0.402
glycan array binding signal (z-score) [21]: 0.429
glycan array binding signal (z-score) [22]: -0.296
glycan array binding signal (z-score) [23]: -0.331
glycan array binding signal (z-score) [24]: -0.987
glycan array binding signal (z-score) [25]: -0.49
glycan array binding signal (z-score) [26]: -0.519
glycan array binding signal (z-score) [27]: -0.248
glycan array binding signal (z-score) [28]: -0.331
glycan array binding signal (z-score) [29]: -0.318
glycan array binding signal (z-score) [30]: -0.391
glycan array binding signal (z-score) [31]: -0.334
glycan array binding signal (z-score) [32]: -0.27
glycan array binding signal (z-score) [33]: -0.373
glycan array binding signal (z-score) [34]: -0.357
glycan array binding signal (z-score) [35]: -0.264
glycan array binding signal (z-score) [36]: -0.196
glycan array binding signal (z-score) [37]: -0.283
glycan array binding signal (z-score) [38]: -0.324
glycan array binding signal (z-score) [39]: -0.893
glycan array binding signal (z-score) [40]: -0.506
glycan array binding signal (z-score) [41]: -0.247
glycan array binding signal (z-score) [42]: -0.351
glycan array binding signal (z-score) [43]: -0.458
glycan array binding signal (z-score) [44]: -0.454
glycan array binding signal (z-score) [45]: -0.417
